Publication PMC4336329 (PLoS ONE, 2015)
Hit rate of the full screen: of about 310,000 compounds, about 14,000 (4.5%) showed an effect of 50% or more. Effects have a minus sign here. This is one part of the list.

target: human ether-à-go-go-related gene (hERG) potassium channel (human, UniProt Q12809); assay: primary screen, population patch clamp on CHO cells stably expressing hERG
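Note: peak tail current of the secondary pulse compared with the same well before compound.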

human ether-à-go-go-related gene (hERG) potassium channel, sequence (Q12809 whole entry, looked up): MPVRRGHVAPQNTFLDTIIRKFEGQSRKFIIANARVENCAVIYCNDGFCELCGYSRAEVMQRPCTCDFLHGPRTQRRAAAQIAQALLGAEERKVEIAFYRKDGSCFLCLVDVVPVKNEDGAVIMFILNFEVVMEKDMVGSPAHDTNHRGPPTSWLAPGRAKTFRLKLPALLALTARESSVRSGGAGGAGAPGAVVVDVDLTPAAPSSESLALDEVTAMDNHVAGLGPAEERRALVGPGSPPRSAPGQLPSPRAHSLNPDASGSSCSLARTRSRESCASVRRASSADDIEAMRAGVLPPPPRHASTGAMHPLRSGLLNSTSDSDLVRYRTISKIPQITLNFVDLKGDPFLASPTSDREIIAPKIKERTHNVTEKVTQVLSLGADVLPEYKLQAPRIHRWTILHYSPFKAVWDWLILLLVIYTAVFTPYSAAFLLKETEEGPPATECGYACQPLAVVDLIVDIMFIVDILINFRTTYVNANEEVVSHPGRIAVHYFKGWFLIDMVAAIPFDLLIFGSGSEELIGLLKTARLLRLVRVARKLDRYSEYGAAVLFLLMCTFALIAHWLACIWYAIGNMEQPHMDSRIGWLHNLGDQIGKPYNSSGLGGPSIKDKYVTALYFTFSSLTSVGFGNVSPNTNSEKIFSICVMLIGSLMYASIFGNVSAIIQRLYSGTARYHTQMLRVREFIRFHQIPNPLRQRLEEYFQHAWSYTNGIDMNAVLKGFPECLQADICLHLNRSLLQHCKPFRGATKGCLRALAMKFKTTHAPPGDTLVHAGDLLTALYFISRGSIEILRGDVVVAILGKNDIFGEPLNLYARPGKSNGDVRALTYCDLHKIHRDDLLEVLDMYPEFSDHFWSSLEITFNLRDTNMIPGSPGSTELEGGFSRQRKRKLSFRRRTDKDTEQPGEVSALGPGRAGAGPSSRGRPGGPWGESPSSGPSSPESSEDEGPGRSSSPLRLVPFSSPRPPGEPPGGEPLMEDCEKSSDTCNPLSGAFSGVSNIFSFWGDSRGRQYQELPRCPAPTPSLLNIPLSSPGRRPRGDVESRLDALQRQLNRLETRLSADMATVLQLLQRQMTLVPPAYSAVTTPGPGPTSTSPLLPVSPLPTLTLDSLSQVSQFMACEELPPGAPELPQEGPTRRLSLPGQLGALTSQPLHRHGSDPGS

| SMILES | hERG current change (%, negative = inhibition) at 10uM |
| --- | --- |
| Cc1cc2c(cc(C(=O)N3CCC(C(=O)N4CCCC4)CC3)n2Cc2c(F)cccc2Cl)o1 | -36.6% |
| COc1ccc(/C=C/C(=O)NC(=S)Nc2ccc(S(=O)(=O)Nc3cc(C)on3)cc2)cc1 | -6.89% |
| COC(=O)[C@H](Cc1ccccc1)NC(=O)NCCc1ccc(OC)cc1 | -7.19% |
| COC(=O)Nc1ccc(NC(C)=O)cc1 | 31.5% |
| O=C(c1ccc2c(c1)OCCCO2)N1CCCCC1 | 11.7% |
| Cc1c(C(=O)N2CCCCCC2)oc2ccccc12 | -37.3% |
| COc1ccc2c(c1)c(C(=O)CNc1nc(C)cs1)c(C)n2C.I | -16.8% |
| N#Cc1ccc(Cn2cc(C=O)c3ccccc32)cc1 | -80.8% |
| CNC(=S)N1CCN(C(c2ccccc2)c2ccccc2)CC1 | -15.6% |
| Cc1ccc(CNC(=O)c2ccc(CN3CCOCC3)cc2)cc1 | 5.22% |
| O=C(N/N=C/c1ccccn1)c1cc(-c2ccc(Br)s2)[nH]n1 | -9.86% |
| CC1CCCC(C)N1/N=C/c1c[nH]c2ccc(Br)cc12 (centres unmarked) | -6.05% |
| CCN(CC)CCNC(=O)c1ccc(NC(=O)c2c(C)nn(-c3ccc(F)cc3)c2Cl)cc1 | -60% |
| CC(C)N1C(=O)CN(C2CCCCCC2)C(=O)C1c1ccccc1F (centres unmarked) | -9.67% |
| COc1cc(C(=O)Nc2cc(S(C)(=O)=O)ccc2Cl)ccc1OCC(=O)N1CCOCC1 | -2.54% |
| Cc1ccc2ncccc2c1[N+](=O)[O-] | 4.07% |
| CCN1C(=O)[C@H]2[C@@H](c3ccc(C)cc3)N3C(=O)N(c4ccc(OC)cc4)C(=O)[C@@]3(Cc3ccccc3)[C@H]2C1=O | 10.9% |
| CCOC(=O)Nc1ccc2c(c1)N(C(=O)CNC)c1ccccc1CC2.Cl | -13.4% |
| Cc1ccc(OCC(=O)N2CCc3ccccc3C2)c([N+](=O)[O-])n1 | -4.35% |

| SMILES | hERG current change (%, negative = inhibition) at 10uM |
| --- | --- |
| Cc1cc(C)c(S(=O)(=O)c2ccccc2C(=O)O)c(C)c1 | 9.38% |
| COc1ccc(-n2nc(C(=O)NCC(=O)N3CCCC3)c3ccccc3c2=O)c(OC)c1 | 13.3% |
| Cc1cc(C)n2nc(C(=O)Nc3ccc(S(=O)(=O)N4CCCCC4)cc3)nc2n1 | -3.52% |
| CC(=O)SC1CC(=O)N(c2c(C)cccc2C)C1=O (centres unmarked) | 13.1% |
| COC(=O)c1cn(C(=O)c2ccc(Cl)cc2)c2ccccc12 | 5.92% |
| COc1ccc(Cl)cc1N1C(=NC(=O)C2CCCCC2)SC2CS(=O)(=O)CC21 (centres unmarked) | -39.5% |
| CC(Oc1ccc2oc3ccccc3c2c1)C(=O)NC12CC3CC(CC(C3)C1)C2 (centres unmarked) | 21.1% |
| CCn1nc(C(=O)Nc2cccc3ccccc23)c(Cl)c1Cl | 4.75% |
| O=C(/C(=C/O)N=Nc1ccccc1)c1ccncc1 | -12.1% |
| COc1cnc(-c2ccccn2)nc1Sc1cccc(Cl)c1 | 14.2% |
| CCc1cc(C(c2cccc(OC)c2)N2CCOCC2)c(NC(=O)c2ccccc2)s1 (centres unmarked) | -1.91% |
| CCCCC(=O)NC(=S)Nc1cccc(C(=O)O)c1 | 13.7% |
| O=C(CN1NS(=O)(=O)c2ccccc2C1=O)Nc1ccccc1OC(F)F | -6.18% |
| COc1ccc(N(CC(=O)NCc2ccccc2C)S(=O)(=O)c2ccc(C)cc2)cc1OC | 4.46% |
| COc1ccc(C2=NS(=O)(=O)N(C)C(C(=O)N3C(C)CCCC3C)=C2)cc1 (centres unmarked) | -1.72% |
| CC(=O)Nc1ccc(NC(=O)C2CC(=O)N=C(N)S2)cc1 (centres unmarked) | 5.46% |
| CCCCn1c(N)c(N(CCC(C)C)C(=O)c2ccc(C)c(S(=O)(=O)N3CCOCC3)c2)c(=O)[nH]c1=O | -5.28% |
| Cn1c(O)c(C(=O)c2ccccc2)c(=O)n(C)c1=O | 6.11% |
| COc1cccc(NCCC(=O)c2cccc([N+](=O)[O-])c2)c1 | 1.61% |

| SMILES | hERG current change (%, negative = inhibition) at 10uM |
| --- | --- |
| O=C(NC1CCCC1)C1CC(c2ccc(F)cc2)=NO1 (centres unmarked) | -5.02% |
| Cc1cc(C(=O)N/N=C/c2ccccn2)c2ccccc2n1 | 14.5% |
| Cc1ccc(NC(=O)CCNS(=O)(=O)c2ccc(OC(F)(F)F)cc2)c(O)c1 | -7.66% |
| Cc1c(Br)c(C(F)(F)F)nn1CC(=O)NCCN1CCOCC1 | 0.425% |
| Cc1ccc(N2CC(C(=O)Nc3cccnc3)CC2=O)cc1Cl (centres unmarked) | 11.7% |
| COC(=O)c1[nH]nc2c1C(=O)N(C1CCCCC1)C2=O | 2.56% |
| COc1ccc(NC(=O)Nc2cc(C)ccc2OC)cc1 | -10.4% |
| Fc1ccc(-c2nnn(Cc3nc4ccccc4s3)n2)cc1 | -11.2% |
| COc1ccc(C(=O)/C=C/Nc2ccc(S(=O)(=O)Nc3onc(C)c3C)cc2)cc1 | 33.4% |
| CCOC(=O)C1CCN(C(=O)CCC(=O)NNc2nc3ccccc3c3nc(C)nn23)CC1 | 6.91% |
| CNC(=O)/C(C#N)=C/c1ccc(-c2ccc(OC)cc2[N+](=O)[O-])o1 | -1.67% |
| COc1ccccc1N=Nc1[nH]c2ccc(C)cc2c1O | 5.92% |
| Cc1ccc(NC(=O)CCN2CCC(C)CC2)cc1.Cl | 18.6% |
| Clc1ccc(-c2c[nH]c3ccccc23)nn1 | 21.1% |
| CN(C)c1ccc(P(=O)(OCc2ccccc2)C(O)c2ccccc2)cc1 (centres unmarked) | -6.46% |
| O=C(Nc1ccccc1NC(=O)c1ccccc1F)c1ccccc1F | 12.5% |
| CN=C(Nc1ccccc1)SC1CC(=O)N(c2cccc(OC)c2)C1=O (centres unmarked) | -4.54% |
| COc1ccc(N2C(=O)CC(NNC(=O)c3ccco3)C2=O)cc1 (centres unmarked) | 9.7% |
